# In paper PMC9911399, “Two distinct binding modes provide the RNA-binding protein RbFox with extraordinary sequence specificity”:
# Where a chain is given by its changes, count along the chain named. This is one part of the list.
# B1: GACUCCC (DNA:RNA)
# RNA: GGGAGACCGGAAUUCAGAUUGUCCGACUCCCUUAAAUCCCGUCGUAGCCACCA
# DNA 1: CAATCTGAATTCCGGTCTCCC
# DNA 2: TGGTGGCTACGACGGGATT
# B2: GUCGGUG (DNA:RNA)
# RNA: B1 RNA with A26U, U28G, C29G, C30U, C31G
# DNA 1: CAATCTGAATTCCGGTCTCCC
# DNA 2: TGGTGGCTACGACGGGATT
# B3: AUAAAAU (DNA:RNA)
# RNA: GGGAGACCGGAAUUCAGAUUGUCCAUAAAAUUUAAAUCCCGUCGUAGCCACCA
# DNA 1: CAATCTGAATTCCGGTCTCCC
# DNA 2: TGGTGGCTACGACGGGATT
# B4: UCCUUGA (DNA:RNA)
# RNA: B1 RNA with G25U, A26C, C29U, C30G, C31A
# DNA 1: CAATCTGAATTCCGGTCTCCC
# DNA 2: TGGTGGCTACGACGGGATT
# B5: GUAAUGA (DNA:RNA)
# RNA: B3 RNA with A25G, A29U, A30G, U31A
# DNA 1: CAATCTGAATTCCGGTCTCCC
# DNA 2: TGGTGGCTACGACGGGATT
# B6: UGGAGUG (DNA:RNA)
# RNA: B3 RNA with A25U, U26G, A27G, A29G, A30U, U31G
# DNA 1: CAATCTGAATTCCGGTCTCCC
# DNA 2: TGGTGGCTACGACGGGATT
# B7: AACAAGA (DNA:RNA)
# RNA: B3 RNA with U26A, A27C, A30G, U31A
# DNA 1: CAATCTGAATTCCGGTCTCCC
# DNA 2: TGGTGGCTACGACGGGATT
# B8: GUCUGAU (DNA:RNA)
# RNA: B3 RNA with A25G, A27C, A28U, A29G
# DNA 1: CAATCTGAATTCCGGTCTCCC
# DNA 2: TGGTGGCTACGACGGGATT
# B9: AGACUUG (DNA:RNA)
# RNA: B3 RNA with U26G, A28C, A29U, A30U, U31G
# DNA 1: CAATCTGAATTCCGGTCTCCC
# DNA 2: TGGTGGCTACGACGGGATT
# B10: CGUCAGC (DNA:RNA)
# RNA: B3 RNA with A25C, U26G, A27U, A28C, A30G, U31C
# DNA 1: CAATCTGAATTCCGGTCTCCC
# DNA 2: TGGTGGCTACGACGGGATT
# B11: UGUAGCG (DNA:RNA)
# RNA: B3 RNA with A25U, U26G, A27U, A29G, A30C, U31G
# DNA 1: CAATCTGAATTCCGGTCTCCC
# DNA 2: TGGTGGCTACGACGGGATT
# B12: UUCACAA (DNA:RNA)
# RNA: B3 RNA with A25U, A27C, A29C, U31A
# DNA 1: CAATCTGAATTCCGGTCTCCC
# DNA 2: TGGTGGCTACGACGGGATT
# B13: AAAGAGG (DNA:RNA)
# RNA: B3 RNA with U26A, A28G, A30G, U31G
# DNA 1: CAATCTGAATTCCGGTCTCCC
# DNA 2: TGGTGGCTACGACGGGATT
# B14: CGUGGGC (DNA:RNA)
# RNA: B1 RNA with G25C, A26G, C27U, U28G, C29G, C30G
# DNA 1: CAATCTGAATTCCGGTCTCCC
# DNA 2: TGGTGGCTACGACGGGATT
# B15: GUCGAUC (DNA:RNA)
# RNA: B1 RNA with A26U, U28G, C29A, C30U
# DNA 1: CAATCTGAATTCCGGTCTCCC
# DNA 2: TGGTGGCTACGACGGGATT
# B16: AUGUCUU (DNA:RNA)
# RNA: B3 RNA with A27G, A28U, A29C, A30U
# DNA 1: CAATCTGAATTCCGGTCTCCC
# DNA 2: TGGTGGCTACGACGGGATT
# B17: GGAAGCG (DNA:RNA)
# RNA: B3 RNA with A25G, U26G, A29G, A30C, U31G
# DNA 1: CAATCTGAATTCCGGTCTCCC
# DNA 2: TGGTGGCTACGACGGGATT
# B18: GUCCGGG (DNA:RNA)
# RNA: B1 RNA with A26U, U28C, C29G, C30G, C31G
# DNA 1: CAATCTGAATTCCGGTCTCCC
# DNA 2: TGGTGGCTACGACGGGATT
# B19: AGGGUCU (DNA:RNA)
# RNA: B3 RNA with U26G, A27G, A28G, A29U, A30C
# DNA 1: CAATCTGAATTCCGGTCTCCC
# DNA 2: TGGTGGCTACGACGGGATT
# B20: CGGGGCG (DNA:RNA)
# RNA: B1 RNA with G25C, A26G, C27G, U28G, C29G, C31G
# DNA 1: CAATCTGAATTCCGGTCTCCC
# DNA 2: TGGTGGCTACGACGGGATT
# B21: UAAGUAA (DNA:RNA)
# RNA: B3 RNA with A25U, U26A, A28G, A29U, U31A
# DNA 1: CAATCTGAATTCCGGTCTCCC
# DNA 2: TGGTGGCTACGACGGGATT
# B22: CCAAGCU (DNA:RNA)
# RNA: B3 RNA with A25C, U26C, A29G, A30C
# DNA 1: CAATCTGAATTCCGGTCTCCC
# DNA 2: TGGTGGCTACGACGGGATT
# B23: UGCCGAU (DNA:RNA)
# RNA: B3 RNA with A25U, U26G, A27C, A28C, A29G
# DNA 1: CAATCTGAATTCCGGTCTCCC
# DNA 2: TGGTGGCTACGACGGGATT
# B24: AGUUGGU (DNA:RNA)
# RNA: B3 RNA with U26G, A27U, A28U, A29G, A30G
# DNA 1: CAATCTGAATTCCGGTCTCCC
# DNA 2: TGGTGGCTACGACGGGATT
# B25: AUUUCUA (DNA:RNA)
# RNA: B3 RNA with A27U, A28U, A29C, A30U, U31A
# DNA 1: CAATCTGAATTCCGGTCTCCC
# DNA 2: TGGTGGCTACGACGGGATT
# B26: UCUGGCC (DNA:RNA)
# RNA: B1 RNA with G25U, A26C, C27U, U28G, C29G
# DNA 1: CAATCTGAATTCCGGTCTCCC
# DNA 2: TGGTGGCTACGACGGGATT
# B27: UGCAAAG (DNA:RNA)
# RNA: B3 RNA with A25U, U26G, A27C, U31G
# DNA 1: CAATCTGAATTCCGGTCTCCC
# DNA 2: TGGTGGCTACGACGGGATT
# B28: AGUAAAA (DNA:RNA)
# RNA: B3 RNA with U26G, A27U, U31A
# DNA 1: CAATCTGAATTCCGGTCTCCC
# DNA 2: TGGTGGCTACGACGGGATT
# B29: CGACCGC (DNA:RNA)
# RNA: B1 RNA with G25C, A26G, C27A, U28C, C30G
# DNA 1: CAATCTGAATTCCGGTCTCCC
# DNA 2: TGGTGGCTACGACGGGATT
# B30: AUAGGGA (DNA:RNA)
# RNA: B3 RNA with A28G, A29G, A30G, U31A
# DNA 1: CAATCTGAATTCCGGTCTCCC
# DNA 2: TGGTGGCTACGACGGGATT
# B31: UGUCCUA (DNA:RNA)
# RNA: B1 RNA with G25U, A26G, C27U, U28C, C30U, C31A
# DNA 1: CAATCTGAATTCCGGTCTCCC
# DNA 2: TGGTGGCTACGACGGGATT
# Biological target: T1, RBFOX1 RRM RbFoxmut (Fox-RRM*) (Homo sapiens, UniProt Q9NWB1 109-208, R118D;E147R;N151S;E152T)
# T1 sequence: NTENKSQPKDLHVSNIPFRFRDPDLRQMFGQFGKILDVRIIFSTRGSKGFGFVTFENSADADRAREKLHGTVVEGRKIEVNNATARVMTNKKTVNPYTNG
# Assay: EMSA; HiTS-Eq, 1 nM pool, 10 min; buffer printed only for the single-RNA assays: 10 mM Tris pH 7.5, 150 mM NaCl, 3.4 mM EDTA, 0.001% NP-40, 30 C
# Details: tags: His6 N-terminal (pET28a); label: 5' 32P
# Outline: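 Relative association constants, normalised to the cognate motif, were derived by comparing read counts of each RNA species with those of the control reaction. The RNA sequenced was the free fraction, separated by 8% native PAGE after a 10 min equilibration in 50 µL of 1 nM 5′-radiolabelled RNA (7 randomized nucleotides) with increasing concentrations of purified wild-type or mutant RbFox RRM.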
row,Binder,binding signal
1,B1,0.0539 KA relative to UGCAUGU
2,B2,0.161 KA relative to UGCAUGU
3,B3,0.0958 KA relative to UGCAUGU
4,B4,0.106 KA relative to UGCAUGU
5,B5,0.121 KA relative to UGCAUGU
6,B6,0.45 KA relative to UGCAUGU
7,B7,0.058 KA relative to UGCAUGU
8,B8,0.092 KA relative to UGCAUGU
9,B9,0.148 KA relative to UGCAUGU
10,B10,0.126 KA relative to UGCAUGU
11,B11,0.262 KA relative to UGCAUGU
12,B12,0.0861 KA relative to UGCAUGU
13,B13,0.0794 KA relative to UGCAUGU
14,B14,0.0996 KA relative to UGCAUGU
15,B15,0.0619 KA relative to UGCAUGU
16,B16,0.0916 KA relative to UGCAUGU

row,Binder,binding signal
1,B17,0.0914 KA relative to UGCAUGU
2,B18,0.0861 KA relative to UGCAUGU
3,B19,0.077 KA relative to UGCAUGU
4,B20,0.16 KA relative to UGCAUGU
5,B21,0.0839 KA relative to UGCAUGU
6,B22,0.0711 KA relative to UGCAUGU
7,B23,0.0817 KA relative to UGCAUGU
8,B24,0.14 KA relative to UGCAUGU
9,B25,0.0906 KA relative to UGCAUGU
10,B26,0.161 KA relative to UGCAUGU
11,B27,0.0927 KA relative to UGCAUGU
12,B28,0.106 KA relative to UGCAUGU
13,B29,0.0792 KA relative to UGCAUGU
14,B30,0.0721 KA relative to UGCAUGU
15,B31,0.084 KA relative to UGCAUGU
